# Test results taken from ChEMBL document CHEMBL5606458, “ASAP - ZIKV NS2B-NS3 protease fluorescence single point” (2024).
# Screen size: about 2,700 compounds; about 160 (5.9%) showed an effect of 50% or more. The list shows a part of the results.
# Target: Nonstructural protein 3 (Zika virus) (UniProt A0A024AXB9)
# [1] = PRVABC59, Concentration 50.0 uM, Number of replicates 1.0
# [2] = PRVABC59, Concentration 10.0 uM, Number of replicates 1.0
# [3] = PRVABC59, Concentration 15.0 uM, Number of replicates 1.0
# Chain of UniProt A0A024AXB9 (A0A024AXB9 as listed by the source): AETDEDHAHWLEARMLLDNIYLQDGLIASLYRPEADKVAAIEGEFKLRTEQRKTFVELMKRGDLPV
structure (smiles),measurement,setting,value
Cc1cc(CO)c2cccc(NCC3CCNCC3)c2n1,inhibition,"PRVABC59, Concentration 99.9 uM, Number of replicates 2.0, Standard deviation 2.951218090372617 %",-5.37%
O=Cc1ccc(N2CCC(C(=O)N3Cc4ccc(Br)cc4C3)CC2)cc1,inhibition,[1],22.1%
O=Cc1ccc(N2CCC(C(=O)NCc3noc(-c4ccco4)n3)CC2)cc1,inhibition,[2],20.9%
Cc1cc(CO)c2cccc(CC(=O)Nc3cccc(C(N)=O)c3)c2n1,inhibition,"PRVABC59, Concentration 49.95 uM, Number of replicates 2.0, Standard deviation 0.035627236808440856 %",58.9%
same,inhibition,"PRVABC59, Concentration 99.9 uM, Number of replicates 2.0, Standard deviation 0.025447255606513557 %",72.8%
O=C(c1cc(Cl)ccc1NS(=O)(=O)c1ccc(Oc2ccccc2Cl)cc1)N(C1CCCCC1)C1CCCCC1,inhibition,[3],15.4%
O=Cc1ccc(N2CCC(C(=O)Nc3ccc(-c4ccccc4)cc3)CC2)cc1,inhibition,[1],19.3%
Cc1cc(CO)c2cccc(Cc3cccc(NC(=O)c4cccc(Cn5cncn5)c4)c3)c2n1,inhibition,"PRVABC59, Concentration 49.95 uM, Number of replicates 2.0, Standard deviation 0.822975548413545 %",-3.88%
same,inhibition,"PRVABC59, Concentration 99.9 uM, Number of replicates 2.0, Standard deviation 0.7828305698397972 %",-0.852%
O=Cc1ccc(N2CCC(C(=O)NCc3nc(-c4ccccn4)no3)CC2)cc1,inhibition,[2],23.5%
O=C(NCc1ccc2[nH]cnc2c1)[C@@]1(c2ccc(F)cc2)CCCNC1,inhibition,"PRVABC59, Concentration 50.0 uM, Number of replicates 2.0, Standard deviation 0.09228322221290718 %",2.42%
same,inhibition,"PRVABC59, Concentration 100.0 uM, Number of replicates 2.0, Standard deviation 1.0048608632181875 %",2.57%
same,inhibition,"PRVABC59, Concentration 200.0 uM, Number of replicates 2.0, Standard deviation 1.443205873701557 %",4.96%
O=Cc1ccc(N2CCC(C(=O)Nc3ccc(C(F)(F)F)cc3[N+](=O)[O-])CC2)cc1,inhibition,[1],22.3%
O=Cc1ccc(N2CCC(C(=O)Nc3ccc(-n4cccn4)cc3)CC2)cc1,inhibition,[1],21.4%
O=Cc1ccc(N2CCC(C(=O)NCc3ccc(C(F)(F)F)nc3)CC2)cc1,inhibition,[2],24.8%
COc1cccc(CCNC(=O)c2cc(Cl)ccc2NS(=O)(=O)c2ccc(Oc3ccccc3Cl)cc2)c1,inhibition,[3],27.6%
O=C(c1cc(Cl)ccc1NS(=O)(=O)c1ccc(Oc2ccccc2Cl)cc1)N(CC1CC1)C[C@H]1CCCO1,inhibition,[3],18.4%
Cc1cc(CO)c2cccc(NC(=O)C3CCC(CN)CC3)c2n1 (configuration not stated),inhibition,"PRVABC59, Concentration 49.95 uM, Number of replicates 2.0, Standard deviation 1.4301713707436838 %",93.7%
same,inhibition,"PRVABC59, Concentration 99.9 uM, Number of replicates 2.0, Standard deviation 0.5018131910126516 %",92.3%
CSCC[C@H](NC(=O)OC(C)(C)C)C(=O)N1CCC[C@H]1C(=O)Nc1cccc(CN)c1,inhibition,"PRVABC59, Concentration 49.5 uM, Number of replicates 2.0, Standard deviation 1.581266347515541 %",0.2%
same,inhibition,"PRVABC59, Concentration 99.01 uM, Number of replicates 2.0, Standard deviation 1.546934947174704 %",0.972%
same,inhibition,"PRVABC59, Concentration 198.0 uM, Number of replicates 2.0, Standard deviation 2.1346085705455513 %",2.7%
CC(C)(C)OC(=O)N1CCOC[C@H]1CNCc1nnc2ccccn12,inhibition,"PRVABC59, Concentration 49.5 uM, Number of replicates 2.0, Standard deviation 1.9960255811771535 %",-1.72%
same,inhibition,"PRVABC59, Concentration 99.01 uM, Number of replicates 2.0, Standard deviation 1.2346722656218103 %",-1.22%
same,inhibition,"PRVABC59, Concentration 198.0 uM, Number of replicates 2.0, Standard deviation 1.381215951736946 %",-0.678%
NCc1cccc(NC(=O)[C@]2(NC(=O)OCc3ccccc3)CCOC2)c1,inhibition,"PRVABC59, Concentration 49.5 uM, Number of replicates 2.0, Standard deviation 1.5769274927803825 %",-1.07%
same,inhibition,"PRVABC59, Concentration 99.01 uM, Number of replicates 2.0, Standard deviation 1.1798240639170976 %",2.06%
same,inhibition,"PRVABC59, Concentration 198.0 uM, Number of replicates 2.0, Standard deviation 1.1535693589868123 %",6.95%
C[C@@H]1CN(C2CCN(C(=O)C3CCN(c4ccc(C=O)cc4)CC3)CC2)C[C@H](C)O1,inhibition,[1],20.4%
O=C(Nc1cc(Cl)c(O)c(Cl)c1)c1cc(Cl)ccc1NS(=O)(=O)c1ccc(Oc2ccccc2Cl)cc1,inhibition,[3],84.9%
O=C(Nc1ccc([N+](=O)[O-])cc1)c1cc(Cl)ccc1NS(=O)(=O)c1ccc(Oc2ccccc2Cl)cc1,inhibition,[3],29.8%
O=Cc1ccc(N2CCC(C(=O)N3CCN(C(=O)c4ccco4)CC3)CC2)cc1,inhibition,[1],24.6%
O=Cc1ccc(N2CCC(C(=O)NCCc3ccc(Cl)cc3Cl)CC2)cc1,inhibition,[1],18.8%
Cn1cc(CN)c(NS(=O)(=O)c2ccc(Oc3ccccc3)cc2)n1,inhibition,"PRVABC59, Concentration 49.5 uM, Number of replicates 2.0, Standard deviation 0.28945899218881677 %",2.85%
same,inhibition,"PRVABC59, Concentration 99.01 uM, Number of replicates 2.0, Standard deviation 1.7759284478361246 %",1.35%
same,inhibition,"PRVABC59, Concentration 198.0 uM, Number of replicates 2.0, Standard deviation 3.118756723311272 %",1.95%
CC(C)c1ccc2c(c1)CC[C@H]1[C@](C)(CNC(=O)C3CCN(c4ccc(C=O)cc4)CC3)CCC[C@]21C,inhibition,[1],2.88%
CNC(=O)C1(C)CCN(C(=O)C2CCN(c3ccc(C=O)cc3)CC2)CC1,inhibition,[1],22.8%
O=Cc1ccc(N2CCC(C(=O)NCc3cc(F)c(F)cc3F)CC2)cc1,inhibition,[2],17%
O=Cc1ccc(N2CCC(C(=O)NCc3ccc(C(=O)N4CCCC4)cc3)CC2)cc1,inhibition,[2],24.7%
O=C(c1cc(Cl)ccc1NS(=O)(=O)c1ccc(Oc2ccccc2Cl)cc1)N1CCN(c2ccccc2[N+](=O)[O-])CC1,inhibition,[3],26.4%
O=Cc1ccc(N2CCC(C(=O)N(Cc3cnn(-c4ccccc4)c3)C3CC3)CC2)cc1,inhibition,[1],26.1%
CC(C)N(C[C@H](O)COc1ccc(CC(N)=O)cc1)C(=O)C1CCN(c2ccc(C=O)cc2)CC1,inhibition,[1],23.4%
O=Cc1ccc(N2CCC(C(=O)N3CCN(c4ccc(F)cc4F)CC3)CC2)cc1,inhibition,[1],20.8%
NCc1ncc(C(=O)Nc2ccccc2N2CCC(CO)CC2)c(C(F)(F)F)n1,inhibition,"PRVABC59, Concentration 49.5 uM, Number of replicates 2.0, Standard deviation 2.673647712624359 %",4.17%
same,inhibition,"PRVABC59, Concentration 99.01 uM, Number of replicates 2.0, Standard deviation 2.2429929004139844 %",6.59%
same,inhibition,"PRVABC59, Concentration 198.0 uM, Number of replicates 2.0, Standard deviation 2.184034516969065 %",8.61%
Cc1cnccc1NC(=O)c1cc(C2CC2)n(C)c1C,inhibition,"PRVABC59, Concentration 49.5 uM, Number of replicates 2.0, Standard deviation 1.2081823180565616 %",-2.23%
same,inhibition,"PRVABC59, Concentration 99.01 uM, Number of replicates 2.0, Standard deviation 2.393209010027268 %",1.49%
same,inhibition,"PRVABC59, Concentration 198.0 uM, Number of replicates 2.0, Standard deviation 1.424755669297428 %",12.1%
CN1CCN(c2ccc(CCNS(=O)(=O)c3ccc(F)cc3)cc2)CC1,inhibition,"PRVABC59, Concentration 49.5 uM, Number of replicates 2.0, Standard deviation 6.510129757356286 %",-3%
same,inhibition,"PRVABC59, Concentration 99.01 uM, Number of replicates 2.0, Standard deviation 7.557780967168432 %",-1.21%
same,inhibition,"PRVABC59, Concentration 198.0 uM, Number of replicates 2.0, Standard deviation 5.825870108397918 %",3.11%
Cc1sc(NC(=O)c2cc(Cl)ccc2NS(=O)(=O)c2ccc(Oc3ccccc3Cl)cc2)nc1-c1ccc(Cl)cc1,inhibition,[3],33.2%
Cc1cc(CO)c2cccc(NCc3ccc(S(N)(=O)=O)cc3)c2n1,inhibition,"PRVABC59, Concentration 49.95 uM, Number of replicates 2.0, Standard deviation 2.3986730749821903 %",-5.11%
same,inhibition,"PRVABC59, Concentration 99.9 uM, Number of replicates 2.0, Standard deviation 1.886822696290366 %",-8.96%
CN(Cc1ccccc1)Cc1cccc(NC(=O)c2ccc3c(c2)B(O)OC3)c1,inhibition,"PRVABC59, Concentration 49.5 uM, Number of replicates 2.0, Standard deviation 7.115138832598285 %",-4.03%
same,inhibition,"PRVABC59, Concentration 99.01 uM, Number of replicates 2.0, Standard deviation 7.051352021894261 %",-1.66%
same,inhibition,"PRVABC59, Concentration 198.0 uM, Number of replicates 2.0, Standard deviation 6.780740847478425 %",2.95%
O=Cc1ccc(N2CCC(C(=O)Nc3c(F)cc(Br)cc3F)CC2)cc1,inhibition,[1],18.9%
COC(=O)c1c[nH]c(-c2ccccc2C(=O)Nc2cnn(C)c2)c1,inhibition,"PRVABC59, Concentration 49.5 uM, Number of replicates 2.0, Standard deviation 1.5718630062911239 %",-4.09%
same,inhibition,"PRVABC59, Concentration 99.01 uM, Number of replicates 2.0, Standard deviation 1.3253228242905268 %",-4%
same,inhibition,"PRVABC59, Concentration 198.0 uM, Number of replicates 2.0, Standard deviation 1.3225986205901765 %",-2.07%
Cc1ccc(NC(=O)C2CCN(c3ccc(C=O)cc3)CC2)c(Br)c1,inhibition,[1],27%
O=C(Nc1ccncc1I)c1cc(Cl)ccc1NS(=O)(=O)c1ccc(Oc2ccccc2Cl)cc1,inhibition,[3],27.7%
CN1CCN(C(=O)C2CCN(C(=O)c3cc(Cl)ccc3NS(=O)(=O)c3ccc(Oc4ccccc4Cl)cc3)CC2)CC1,inhibition,[3],-3.6%
